Measured values from the supplement of paper PMC12217912.
Some of the results follow. The full chains were built here from the parent and the listed change. Inactive controls read about 0.05.

B1: TEV protease; numbered along this chain (parent)
chain: MGESLFKGPRDYNPISSSICHLTNESDGHTTSLYGIGFGPFIITNKHLFRRNNGTLVVQSLHGVFKVKDTTTLQQHLVDGRDMIIIRMPKDFPPFPQKLKFREPQREERICLVTTNFQTKSMSSMVSDTSCTFPSGDGIFWKHWIQTKDGQCGSPLVSTRDGFIVGIHSASNFTNTNNYFTSVPKNFMELLTNQEAQQWVSGWRLNADSVLWGGHKVFMVKPEEPFQPVKEATQL

Variants of: B1
Test: raw area under fraction-flipped curve 0-4 h after induction (AUC4h, not background-subtracted), DNA-recorder readout of cleavage of the substrate (dimensionless); higher = more cleavage of the substrate by the protease variant
Settings: temperature: 34 °C; time window: 0-4 h after rhamnose induction
Method: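 In vivo DNA recorder in E. coli TOP10(DE3) ΔrhaA at 34 °C. Each TEVp single-site mutant (parent TEVp 0) is paired with a single-site variant of the 7-mer TEVs (canonical ENLYFQ|S). The substrate sits between flexible linkers in a Bxb1-sfGFP-TEVs-SsrA fusion, so cleavage stabilises Bxb1 and speeds flipping of a recombination array, read by NGS. The value is the raw area under the fraction-flipped curve over 0-4 h after rhamnose induction (AUC4h), with ≥20 reads per time point. It is not background-subtracted; inactive controls average about 0.047.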
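Note: Bxb1 expression induced with 0.2% (w/v) L-rhamnose at OD600 near 0.5, cultures sampled hourly, flipped fraction per protease–substrate barcode pair counted by paired-end Illumina sequencing.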

Variant	area with substrate ENAYFQS	area with substrate ENCYFQS	area with substrate ENDYFQS	area with substrate ENEYFQS	area with substrate ENGYFQS	area with substrate ENHYFQS	area with substrate ENIYFQS	area with substrate ENKYFQS	area with substrate ENMYFQS	area with substrate ENNYFQS	area with substrate ENPYFQS	area with substrate ENQYFQS	area with substrate ENRYFQS	area with substrate ENSYFQS	area with substrate ENTYFQS	area with substrate ENVYFQS	area with substrate ENYYFQS	area with substrate ENFYFQS	area with substrate ENWYFQS
F38W	0.069	0.0612	0.0583	0.0683	0.0558	0	0.109	0.0541	0.0604	0.057	0.0261	0.0616	0.0682	0.0535	0.0551	0.0869	0.0572		
F38I	0.0663		0.0452	0.0539				0.058		0.0591			0.0578	0.0622	0.0594	0.0426			
F38Y	0.0533		0.0628	0.0588	0.0585			0.0644		0.0655		0.0586	0.0418	0.0651		0.0799	0.0732	0.054	
F38C	0.0632		0.0651	0.0482	0.0542			0.0699	0.0754			0.0547	0.0546	0.0573	0.0589	0.0504	0.0308	0.054	
N45T	0.0571	0.0741	0.0693	0.0587	0.0643	0.0655		0.0351	0.0511	0.0669	0.06	0.0564	0.0584	0.0494	0.0626	0.0555		0.0589	
H29C	0.0651	0.0712	0.0606	0.0556		0.0565		0.076	0.0664		0.0605	0.0715		0.0642	0.073	0.0844	0.0735	0.0574	0.0635
H29N	0.0634	0.069	0.0695	0.0634	0.0631	0.0616		0.06	0.0802	0.0657	0.0657	0.0715	0.0531	0.0628	0.063		0.0474	0.0629	0.0522
T31A	0.0959			0.0612		0.0537		0.0518	0.0881	0.066		0.0563	0.0541	0.0619	0.0524	0.0779	0.0171	0.0635	
F41I	0.0655	0.0695	0.0553	0.0604		0.0383		0.0382	0.0792	0.0564	0.0599	0.0507	0.0497	0.0629	0.0554	0.0719		0.0535	0.0581
I36S	0.0393	0.063	0.0491	0.0534	0.0585		0.0783	0.063	0.056	0.0469	0.0449	0.0528	0.0477	0.0571	0.0506	0.0678		0.0539	0.0342
I36Y	0.0505	0.0512	0.0519	0.0494		0.0596	0.053	0.0468			0.0268	0.0415	0.0431	0.0447	0.0437			0.0497	
I36W	0.0495	0.0454	0.0558		0.0517	0.0548	0.0531		0.0467	0.0691	0.044	0.057	0.0573	0.0523	0.0524	0.0554	0.0476	0.0366	0.0255
I36H	0.0443	0.0606	0.0457	0.0469	0.0467	0.0407	0.054		0.0551	0.0509	0.0559	0.0446		0.0489	0.0448		0.0671	0.0456	
I36M	0.0602	0.0549	0.0637	0.0697	0.0562	0.0585		0.0678		0.0468	0.0402	0.058	0.0463	0.0557	0.0531	0.0739			0.0451
I36T	0.0546	0.0723	0.0614	0.064	0.0621	0.044				0.0552	0.0512	0.0704	0.0569	0.0598	0.0473	0.067	0.0648		0.0231
G39E	0.0472	0.0475	0.0606		0.0419	0.0472		0.0442	0.0468		0.0519	0.0431	0.0375	0.0498	0.0477	0.0337	0.0396	0.0283	
G39I	0.0467	0.0446	0.0415	0.0455	0.0297	0.0443				0.0458	0.0343	0.0581		0.0436		0.0362	0.0427	0.0506	
G39M	0.0401	0.0396	0.0445	0.0456	0.036	0.0296	0.0473	0.0436		0.0349	0.035	0.0388	0.0398	0.0411	0.0444	0.0415	0.0351	0.0426	
G39R	0.0287	0.0383	0.0541	0.0483	0.0494	0.0454				0.0478	0.046	0.0503	0.0623	0.0531	0.0446	0.0206	0.0394	0.0415	0.0043
I42R	0.0331	0.069	0.0459	0.0497	0.0484	0.0361	0.0563				0.0473	0.0357	0.0391	0.0496	0.0351	0.0453	0.0456	0.0405	0.0262
I42A	0.0527		0.0506	0.0425	0.0445		0.0394	0.0569	0.0188		0.0586	0.0581		0.0496	0.0556	0.0679		0.0317	0.0389
I42F	0.0567				0.0404	0.0385		0.0499	0.0439			0.0464	0.0498	0.0537	0.0472			0.0312	
I42L	0.0562	0.056	0.054	0.0598	0.0744	0.064				0.0549	0.0683	0.0665	0.0433		0.0589	0.0558		0.0659	0.0239
K46A	0.0556	0.0978	0.069	0.0627	0.0568	0.062	0.151		0.0865	0.0492		0.0631	0.0604	0.0627	0.0637	0.0916	0.0594	0.0568	
